About 50,000 (12%) of roughly 420,000 compounds were called active. The shares of active, inactive and inconclusive entries below differ from those in the screen. The call rests on the fitted dose curve; in most records, active means well fitted inhibition curve with a large enough effect; inconclusive means small, poorly fitted or top-dose-only effect; inactive means flat fitted curve, though single readings scatter. No potency is given beside an inconclusive call; the fits are too rough.
Assay: qHTS for Inhibitors of human tyrosyl-DNA phosphodiesterase 1 (TDP1): qHTS in cells in presence of CPT; further: nearly all actives have a fitted effect of over 55% in size
Settings: chicken DT40 Tdp1-/-;hTDP1 cells + 20 nM CPT, ATP luminescence, 48 h; activity change, negative = growth inhibition: at 46.2 µM (top of the series) unless noted
Method in brief: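 Chicken DT40 Tdp1-/- cells complemented with human TDP1, 400 cells/well, exposed to compounds plus 20 nM camptothecin for at least 48 h at 37 C; viability read as ATP content by CellTiter-Glo luminescence.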
With `CC(C)COC(=O)c1ccc(N2C(=O)c3ccccc3C2=O)cc1` the “activity change, negative = growth inhibition” value was inactive: -2.28%.
In the case of `CN(C)N=Nc1nc2c([nH]1)c(=O)n(C)c(=O)n2C`, the “activity change, negative = growth inhibition” value was inactive: -3.91%.
In the case of `COc1ccc(NC(=O)c2cc(CN3C(=O)c4ccccc4C3=O)ccc2OC)cn1`, the Potency was inconclusive [inhibitor, single point].
In the case of `CCCCn1c(CNC(=O)C23CC4CC(CC(C4)C2)C3)nnc1SCC(=O)Nc1ccccc1`, the Potency was inconclusive [inhibitor, single point].
For `Cc1ncc(COC(=O)C(C)C)c2cc(C(=O)Nc3ccccc3C(F)(F)F)c(=O)oc12`, the “activity change, negative = growth inhibition” value was inactive: -13.3%.
With `Cc1ccccc1S(=O)(=O)NC(=O)C1(C)CCN1C(=O)CCc1cccs1` (stereo not drawn) the “activity change, negative = growth inhibition” value was inactive: -13.2%.
For `Cc1c(C#N)c(N)nc2c3c(sc12)NC(=O)CC3c1ccc(Cl)cc1` (stereo not drawn), the Potency was inconclusive [inhibitor, single point].
With `COc1ccccc1C(=O)CC(=O)c1ccccc1` the Potency was inconclusive [inhibitor, single point].
For `CC(=O)N1CCN(c2ccc(NC(=O)c3cc(Cl)ccc3Cl)cc2)CC1`, the “activity change, negative = growth inhibition” value was inactive: -29.2%.
For `CN1c2ccc(Cl)cc2-c2nc(SCC(=O)Nc3cc(F)ccc3F)ncc2S1(=O)=O`, the Potency was inconclusive [inhibitor, partial curve, poor fit].
In the case of `Oc1c(Cl)cc(CN2CCOCC2)c2cccnc12`, the Potency was active: 0.651 µM.
For `CO[C@H]1CN(C)C(=O)c2ccc(NC(=O)C3CCC3)cc2OC[C@H](C)N(CC2CCCCC2)C[C@@H]1C`, the Potency was inconclusive [inhibitor, single point].
With `CCCCn1nnnc1NCc1ccc(N(CC)CC)cc1` the Potency was inconclusive [inhibitor, partial curve, poor fit].
With `O=C(c1ccco1)N1CCN(c2nc3ccc(Cl)cc3s2)CC1` the Potency was inconclusive [inhibitor, single point].
For `C[C@@]12C(=O)Nc3ccc(Cl)cc3C(=O)N1[C@H]1c3ccccc3OC[C@@H]1[C@@H]2c1ccccc1`, the Potency was inconclusive [inhibitor, single point].
In the case of `C/C(=N/NC(=O)CN1CCN(S(=O)(=O)c2ccc(C)cc2)CC1)c1cccc(O)c1`, the “activity change, negative = growth inhibition” value was inactive: 5.23%.
For `COCCN(C(=O)CSc1nnc2cc(C)c3ccccc3n12)c1c(N)n(Cc2ccccc2)c(=O)[nH]c1=O`, the Potency was inconclusive [inhibitor, single point].
In the case of `COc1cccc(CNC(=O)[C@@H](C)N2C(=O)N3CCc4c([nH]c5ccc(OC)cc45)C3(C)C2=O)c1` (stereo partly drawn), the Potency was active: 14.6 µM.
For `Cc1ccc(Oc2ccc(NC(=O)C3=CC=CN4CCS(=O)(=O)N=C34)cc2)cc1`, the Potency was inconclusive [inhibitor, single point].
In the case of `O=C1c2ccccc2C(c2nnnn2-c2ccc3c(c2)OCCO3)N1Cc1ccc2c(c1)OCO2` (stereo not drawn), the Potency was active: 18.4 µM.
In the case of `CC1(C(=O)NC2CCCC2)CCN1C(=O)Cc1ccc(-c2ccccc2)cc1` (stereo not drawn), the Potency was active: 16.4 µM.
In the case of `CCc1nc2ccc(C(=O)NCCc3ccc(OC)c(OC)c3)cc2nc1CC`, the Potency was active: 16.4 µM.
In the case of `COc1ccc(-c2cc(CNS(=O)(=O)c3ccc(F)cc3)on2)cc1`, the “activity change, negative = growth inhibition” value was inactive: 6.32%.
For `COc1ccc(NS(=O)(=O)Cc2ccccc2Cl)cn1`, the “activity change, negative = growth inhibition” value was inactive: -9.82%.
With `N#C[C@@H]1N(Cc2ccccc2)C(=O)[C@H]2CC3C=CC21O3` (stereo partly drawn) the Potency was inconclusive [inhibitor, single point].
For `CCn1nc(C)c(CN2CCc3c([nH]c4ccccc34)C2c2ccc(F)c(OC)c2)c1C` (stereo not drawn), the Potency was active: 29.1 µM.
For `CN(C)CCCNC1=CC(=O)CC(c2ccccc2)C1` (stereo not drawn), the “activity change, negative = growth inhibition” value was inactive: 2.84%.
For `CCCOC(=O)c1ccc(N)cc1`, the “activity change, negative = growth inhibition” value was inactive: 2.23%.
With `CC1=NN(c2ccccc2)C(=O)C1N=Nc1ccccc1` (stereo not drawn) the “activity change, negative = growth inhibition” value was inactive: 6.83%.
In the case of `CCOc1cccc(C2NC(=S)NC(C)=C2C(=O)Nc2ccccc2)c1` (stereo not drawn), the Potency was inconclusive [inhibitor, single point].
In the case of `O=S(=O)(c1ccc(-c2cc(C(F)(F)F)on2)s1)N1CCN(c2cccc(Cl)c2)CC1`, the “activity change, negative = growth inhibition” value was inactive: -4.46%.
For `CCN1CCN(CCCNC(=O)c2cc3c(s2)-c2c(C)cccc2OC3)CC1`, the Potency was active: 4.61 µM.
With `CC[C@]12c3[nH]c4ccccc4c3CCN1C(=O)C(CC(=O)NCc1ccc(OC)c(OC)c1)C[C@@H]2C(=O)N1CCN(C(=O)C2CC2)CC1` (stereo partly drawn) the “activity change, negative = growth inhibition” value was inactive: -5.71%.
With `COc1ccccc1C(=O)Nc1c(C)cc(Br)cc1C` the Potency was inconclusive [inhibitor, single point].
In the case of `O=C(NCCN1CCOCC1)C1CC(=O)N(c2ccc(F)cc2)C1` (stereo not drawn), the “activity change, negative = growth inhibition” value was inactive: -2.98%.
In the case of `CC(=O)N1CCN(C(=S)Nc2ccc(SC(F)F)cc2)CC1`, the “activity change, negative = growth inhibition” value was inactive: -24.2%.
For `O=C(Nc1ccc2c(c1)oc1ccc(S(=O)(=O)N3CCCC3)cc12)C1CC1`, the Potency was inconclusive [inhibitor, single point].
In the case of `COc1ccccc1C(CC(=O)Nc1ccc(Cl)cc1)c1ccc(OC(C)C)cc1` (stereo not drawn), the Potency was active: 16.4 µM.
With `CCN1CCN(C2=C(NS(=O)(=O)c3ccccc3)C(=O)c3ccccc3C2=O)CC1` the Potency was active: 20.6 µM.
In the case of `CCCNC(=O)Nc1ccc2c(c1)N(C)C(=O)c1ccccc1S2`, the “activity change, negative = growth inhibition” value was inactive: -25%.
With `CCOC(=O)C1CCN(C(=O)c2ccc3c(c2)NC(=O)/C(=C\c2cccc(C)c2)S3)CC1` the Potency was inconclusive [inhibitor, single point].
For `CCOC(=O)N1CCN(S(=O)(=O)c2ccc3c(c2)SCC(=O)N3)CC1`, the Potency was inconclusive [inhibitor, partial curve].
In the case of `O=C(Nc1nccs1)c1cc2c(s1)CCCCC2`, the Potency was inconclusive [inhibitor, single point].
With `Cc1cc(Nc2cnc3ccccc3n2)n(-c2ccccc2)n1` the Potency was inconclusive [inhibitor, single point].
With `COc1ccc(OC)c(CNC(=O)c2ccc(C)c(NC(=O)C3=C(C)OCCS3)c2)c1` the “activity change, negative = growth inhibition” value was inactive: -17%.
In the case of `COc1ccccc1C(=O)NCC(c1ccco1)N1CCc2ccccc21` (stereo not drawn), the Potency was active: 14.6 µM.
In the case of `COc1ccc(Br)cc1C1NC(=O)c2c(sc3c2CCN(C)C3)N1` (stereo not drawn), the “activity change, negative = growth inhibition” value was inactive: -1.93%.
With `CC1=N/C(=C/c2ccc([N+](=O)[O-])cc2)C(=O)N1c1ccc(Cl)cc1Cl` the Potency was inconclusive [inhibitor, single point].
With `CC(=O)c1c(C)[nH]c(C(=O)Nc2cccc(C#N)c2)c1C` the “activity change, negative = growth inhibition” value was inactive: -20.5%.
For `CCCCn1c(=O)[nH]c(=O)c2c1nc(-c1ccc(-c3ccccc3Br)o1)n2CC`, the Potency was inconclusive [inhibitor, single point].
In the case of `COCc1ccc(C(=O)NC2CCCc3c2cnn3-c2cc(C)cc(C)c2)s1` (stereo not drawn), the Potency was inconclusive [inhibitor, single point].
For `CCN(Cc1ccccc1)C(=O)c1ccccc1C`, the “activity change, negative = growth inhibition” value was inactive: -18.1%.
For `O=C(N/N=C/c1coc2ccc(Cl)cc2c1=O)c1ccc(O)cc1`, the Potency was inconclusive [inhibitor, single point].
In the case of `CCCn1c2ccccc2c2nnc(SC(CC)C(=O)Nc3sc4c(c3C#N)CCCC4)nc21` (stereo not drawn), the Potency was inconclusive [inhibitor, partial curve].
For `CN(Cc1ccon1)Cc1cn(C)nc1-c1cccc(Cl)c1`, the Potency was inconclusive [inhibitor, single point].
In the case of `COc1ccccc1CC(=O)c1ccc(OCc2ccccc2)cc1`, the Potency was inconclusive [inhibitor, single point].
For `CC(Sc1nnc(Nc2ccccc2)s1)C(=O)Nc1nc(-c2ccccc2)cs1` (stereo not drawn), the Potency was inconclusive [inhibitor, single point].
For `CC1(C(=O)Nc2cccc(C(F)(F)F)c2)Cc2c(-c3cccc(C(F)(F)F)c3)ccnc2O1` (stereo not drawn), the Potency was inconclusive [inhibitor, single point].
In the case of `COc1ccc(NC(=S)NNC(=O)CNc2ccc(Cl)cc2)cc1`, the Potency was inconclusive [inhibitor, single point].
With `O=C1CCCCCC(=O)[C@H](O)C[C@H](c2ccccc2)O1` the “activity change, negative = growth inhibition” value was inactive: 3.25%.
With `COc1ccc(OC)c(CCNC(=O)c2ccc3[nH]c(C)c(C)c3c2)c1` the Potency was inconclusive [inhibitor, single point].
With `CC(C)Nc1nc(NCCOc2ccccc2)c2sccc2n1` the Potency was active: 20.6 µM.
In the case of `COc1ccc(C(CC(=O)Nc2ccc(OC)c(OC)c2)N2Cc3ccccc3C2=O)cc1` (stereo not drawn), the Potency was inconclusive [inhibitor, partial curve].
With `COc1cc(OC)c2c(C)cc(=O)oc2c1C(CCN1CCN(c2ccccc2)CC1)c1ccc2c(c1)OCO2` (stereo not drawn) the Potency was active: 5.17 µM.
In the case of `COc1ccc(S(=O)(=O)N2CCCCCC2)cc1C(=O)NCCc1ccc(F)cc1`, the Potency was inconclusive [inhibitor, partial curve].
In the case of `Cc1cc(-c2ccccc2)nc(N/N=C/c2ccccc2F)n1`, the Potency was inconclusive [inhibitor, single point].
With `CCc1ccccc1S(=O)(=O)Cc1ccc(C(=O)NCCc2ccccc2)o1` the Potency was inconclusive [inhibitor, single point].
In the case of `Clc1ccc(OCCn2ccnc2)c(Cl)c1`, the “activity change, negative = growth inhibition” value was inactive: -16.2%.
For `COc1cccc(-c2ccccc2C2=CC(=O)CC(C)(C)C2=O)c1`, the “activity change, negative = growth inhibition” value was inactive: -14.6%.
In the case of `COc1ccccc1-c1noc(CCC(=O)N2CCN(c3cc(C)ccc3C)CC2)n1`, the Potency was inconclusive [inhibitor, single point].
With `O=C1CCC(Cc2ccccc2)N1` (stereo not drawn) the Potency was inconclusive [inhibitor, full curve, poor fit].
For `N#Cc1c2c(c(NCCN3CCOCC3)n3c1nc1ccccc13)CCCC2`, the Potency was inconclusive [inhibitor, single point].
In the case of `O=C(NCCc1ccc(F)cc1)NC12CC3CC(CC(C3)C1)C2`, the Potency was inconclusive [inhibitor, single point].
On the % scale 0 is the no-effect control and ±100 the full control effect; potency means the concentration at half of the fitted maximal effect; tags describe the fitted curve by direction and shape.
